# About 200 (0.47%) of roughly 43,000 compounds were called active. Another 12% or so got no clear call; they are omitted. Calls come from the whole dose curve; as a rule, active = well fitted cell-killing curve with a large enough effect; inconclusive = small, poorly fitted or top-dose-only effect, or effect the other way; inactive = flat fitted curve, though single readings scatter. The list shows a part of the results.
# Experiment: Cell viability qHTS assay in S16 Pmp22-F2sN cells; note: nearly all actives have a fitted effect of over 65% in size
# Details: S16 Pmp22-F2sN Schwann cells viability, CellTiter-Glo, 24 h; series mostly up to 57.5 µM; activity change, negative = cytotoxicity: at the top concentration
# How it was run: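 Used to flag compounds lowering reporter output through toxicity, this quantitative HTS measures ATP-based CellTiter-Glo luminescence in S16 Pmp22-F2sN Schwann cells after 24 h compound exposure at 37C.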
# % is set by controls: 0 for no effect and ±100 for the full control effect.
row,Structure (SMILES),"activity change, negative = cytotoxicity"
1,COc1ccc(N(Cc2cccs2)C(=O)c2ccc(OC)c(Cl)c2)cc1,inactive: -1.02%
2,Cc1cccc(N2CCN(C(=O)C3CCN(S(=O)(=O)c4c(C)noc4C)CC3)CC2C)c1 (stereo not drawn),inactive: -2.64%
3,COc1ccc(NC(=O)Cn2cc(S(=O)(=O)c3ccccc3)c(=O)c3cc4c(cc32)OCO4)cc1,inactive: -0.408%
4,Cc1c(C(=O)Nc2ccccc2)sc2nc(-c3cc4cc(Cl)ccc4oc3=O)[nH]c(=O)c12,inactive: 6.65%
5,CCCS(=O)(=O)c1c(S(=O)(=O)CCC)c2cc(C(C)(C)C)ccn2c1C(=O)c1ccccc1,inactive: -14%
6,COc1cccc(N2CCN(C(=O)C3CCN(S(=O)(=O)c4c(C)noc4/C=C/c4ccccc4F)CC3)CC2)c1,inactive: 5.81%
7,CCC(=O)Nc1ccccc1-c1nc2ccccc2n(CC(=O)Nc2ccccc2OC)c1=O,inactive: -16.8%
8,COc1ccc(-c2nc3scc(CCNS(=O)(=O)c4ccc(F)cc4C)n3n2)cc1,inactive: -9.6%
9,COC(=O)c1cc2oc3ccccc3c2n1Cc1ccc(Cl)cc1,inactive: 2.97%
10,CCC(Oc1ccc(F)cc1)C(=O)Nc1c(C(=O)c2ccc(C)cc2)oc2ccccc12 (stereo not drawn),inactive: 4.75%
11,CCn1cc(C(=O)N2CCN(c3ccccc3)CC2)c(=O)c2cc(S(=O)(=O)N3CCOCC3)ccc21,inactive: 9.85%
12,COc1ccc(NC(=O)c2ccc3nc(C(C)C)oc3c2)cc1OC,inactive: 0.249%
13,COc1ccc(N(C)C(=O)c2cn(C)c(=O)c3cc(OC)c(OC)cc23)cc1,inactive: 10.5%
14,Cc1ccc(Cn2c(CO)cnc2SCC(=O)Nc2ccc(C)c(Cl)c2)cc1,inactive: -14%
15,CCN(CC)CCNC(=O)c1cc2c(=O)n(C)c3cc(Cl)ccc3c2s1,inactive: 17.1%
16,COc1cccc(CN2c3ccccc3-c3nc(SCC(=O)Nc4ccccc4Cl)ncc3S2(=O)=O)c1,inactive: 13.8%
17,Cc1ccc(-c2ccc(=O)n(CCC(=O)NCCc3ccccc3)n2)cc1,inactive: 10%
18,O=C1CSC2(C(=O)N(Cc3cccc(F)c3)c3ccccc32)N1c1cccc(C(F)(F)F)c1 (stereo not drawn),inactive: 0.32%
19,CC(C)COc1ccc(C(=O)N2CCN(CCc3ccncc3)CC2)cc1,inactive: 9.2%
20,CCCCN(C)CCNC(=O)c1cc2c(=O)n(C)c3ccccc3c2n1C,inactive: -4.65%
21,COc1ccc(CNC(=O)CCc2c(C)c3cc4c(C)coc4c(C)c3oc2=O)cc1OC,inactive: 11%
22,CCCc1nn2c(=O)cc(COC(=O)c3ccc(NC(=O)COc4ccccc4)cc3)nc2s1,inactive: -1.66%
23,N#Cc1ccccc1NS(=O)(=O)c1ccc(N2CCCCS2(=O)=O)cc1,inactive: -5.05%
24,CN1C(=O)c2ccccc2Sc2ccc(NC(=O)c3ccc(C(F)(F)F)cc3)cc21,inactive: -10.9%

row,Structure (SMILES),"activity change, negative = cytotoxicity"
1,Cc1nn2c(C)c(C(=O)NC(C)(C)C)cnc2c1-c1ccc(F)cc1,inactive: 1.21%
2,COc1ccc(N2C(=O)CSC23C(=O)N(CC(=O)NCCc2ccccc2)c2ccccc23)cc1 (stereo not drawn),inactive: -1.63%
3,O=C(CSc1nc(=O)[nH]c2c1CCCC2)NCc1ccccc1,inactive: 1.13%
4,COc1ccccc1C(=O)Nc1ccc(C(=O)OCc2cc(=O)n3nc(C4CC4)sc3n2)cc1,inactive: 2.76%
5,COc1ccc(NC(=O)Cn2c(=O)n(Cc3ccccc3)c(=O)c3sc4ccccc4c32)cc1,inactive: 18.6%
6,CCOc1ccc(C(=O)Nc2ccc3oc(-c4ccc5ccccc5c4)nc3c2)cc1,inactive: -1.1%
7,CCCCNC(=O)c1cc2n(n1)CCCN(Cc1ccc(C)cc1)C2=O,inactive: -0.156%
8,CCc1ccc(Cn2c(CNS(=O)(=O)c3ccc(C)c(C)c3)nc3cccnc32)cc1,inactive: -6.2%
9,Cc1ccc(N2CC(NC(=O)c3cc4ccccc4o3)CC2=O)cc1 (stereo not drawn),inactive: 4.02%
10,Cc1ccc(S(=O)(=O)c2c(O)cc(C)c(NS(=O)(=O)c3ccc(Cl)cc3)c2C)cc1,inactive: -13.6%
11,COc1ccccc1N1CCN(S(=O)(=O)c2c(C)nc3sccn3c2=O)CC1,inactive: 1.45%
12,Cc1cc(C)c2sc(N3CCN(C(=O)c4ccc(N(C)C)cc4)CC3)nc2c1,inactive: 0.823%
13,CC(C)c1nn2c(=O)cc(COC(=O)c3ccco3)nc2s1,inactive: 17.9%
14,CC(C)c1noc(-c2ccccc2OCC(=O)Nc2cccc([N+](=O)[O-])c2)n1,inactive: 11.9%
15,CC(C)Sc1ncc(Cl)c(C(=O)Nc2ccc(S(=O)(=O)N3CCCCC3)cc2)n1,inactive: -2.11%
16,CCN(CC)S(=O)(=O)c1ccc2c(c1)c(=O)c(C(=O)N1CCN(c3cc(Cl)ccc3C)CC1)cn2C,inactive: -3.48%
17,CC(=O)N1CCc2cc(Br)cc(S(=O)(=O)CCC(=O)N3CCN(c4ccccc4Cl)CC3)c21,inactive: 8.21%
18,Cc1ccc(CN(C(=O)COc2cc(C)c(Cl)c(C)c2)c2ccccn2)o1,inactive: -2.97%
19,CCOc1ccc(-c2c(C)nn3c(C)c(C(=O)Nc4cc(C)cc(C)c4)cnc23)cc1OCC,inactive: 2.24%
20,Cc1ccc(NC(=O)C2CCN(S(=O)(=O)c3cccc4nonc34)CC2)cc1C,inactive: 10.3%
21,COc1cc(C2CC(=O)Oc3c2c(=O)[nH]c2ccccc32)cc(OC)c1OC (stereo not drawn),inactive: 15.4%
22,Cc1ccc(-c2cc3nc(-c4ccccc4)cc(C(F)(F)F)n3n2)cc1,inactive: 3.01%
23,CCOc1ccc(Nc2c(S(=O)(=O)c3ccccc3)cnc3ccc(F)cc23)cc1,inactive: -15.3%
24,O=C(Oc1ccccc1F)c1nc(SCc2ccc(F)cc2)ncc1Cl,inactive: 3.41%

row,Structure (SMILES),"activity change, negative = cytotoxicity"
1,Cc1c(Cl)cccc1NC(=O)CCOc1ccccc1,inactive: -20.5%
2,CCOc1ccc(Cn2c(=O)sc3ccccc32)cc1,inactive: 1.37%
3,Cc1cccn2c(=O)c3cc(C#N)c(=O)n(-c4nnc(SCc5ccc(Cl)cc5)s4)c3nc12,inactive: -5.51%
4,CC1=C(C(=O)Nc2ccccc2C)C(c2ccccn2)n2ncnc2N1 (stereo not drawn),inactive: -3.71%
5,Cc1cccc(C)c1NC(=O)CS(=O)(=O)c1nc(-c2ccc(Cl)cc2)cn1-c1ccccc1,inactive: -19.9%
6,CC(=O)N1CCc2cc(S(=O)(=O)NC(CC(C)C)C(=O)Nc3cc(C)cc(C)c3)ccc21 (stereo not drawn),inactive: 1.9%
7,CCOC(=O)c1nc(NCc2ccc(Cl)cc2)c2c(C)noc2n1,inactive: 11.7%
8,CCSc1ncc(Cl)c(C(=O)Nc2sc3c(c2C(=O)NCCCOC)CCCC3)n1,inactive: -5.15%
9,Cc1ccc(C)c(-c2ccc(=O)n(Cc3c(F)cccc3Cl)n2)c1,inactive: 0.289%
10,Cc1cc(C)c2c(c1)c(C)cc1nnc(SCc3ccccc3C#N)n12,inactive: 0.577%
11,Cc1ccc(NC(=O)CN2C(=O)COc3ccc(S(=O)(=O)NC4CCCC4)cc32)cc1N(C)C,inactive: 3.1%
12,Cc1ccc(C)c(Cn2c(=O)c3c(nc4n3CCN4c3ccccc3)n(C)c2=O)c1,inactive: 18.2%
13,CCOc1ccc(NC(=O)c2c(NCc3cc(OC)c(OC)cc3OC)sc3c2CCCC3)cc1,inactive: -4.99%
14,CCC(=O)N1c2ccccc2CC1C(=O)NCCN1CCN(c2cc(Cl)ccc2C)CC1 (stereo not drawn),inactive: -1.13%
15,O=C(Cc1ccc(Cl)cc1)Nc1ccc2oc(-c3ccc(F)cc3)nc2c1,inactive: 16.5%
16,COC(=O)c1ccccc1NC(=O)C(Cc1ccccc1)N1Cc2ccccc2C1=O (stereo not drawn),inactive: 4.5%
17,Cc1cc(C)cc(OCC(=O)N2CCC(c3nc4ccccc4o3)CC2)c1,inactive: 0.591%
18,COc1ccc(C)cc1NC(=O)Cn1cc(S(=O)(=O)N2CCC(C)CC2)c2ccccc2c1=O,inactive: -8.06%
19,N#C/C(=C\c1ccc(F)cc1)c1nc(-c2ccc(-c3ccccc3)cc2)cs1,inactive: 11%
20,COCCCNc1nc2c(c(=O)[nH]c(=O)n2C)n1CC(O)COc1ccc(Cl)cc1 (stereo not drawn),inactive: -2.46%
21,COc1cccc(CC(=O)Nc2c(C(=O)N3CCN(c4ccccc4F)CC3)oc3ccccc23)c1,inactive: -22.5%
22,Cc1cc(C)c2c(=O)c3c(oc2c1)C(=O)N(CCCOC(C)C)C3c1ccccc1F (stereo not drawn),inactive: 0.139%
23,COc1ccc(NC(=O)Cn2c(-c3ccc(F)cc3)cc(C(C)=O)c2C)c(OC)c1,inactive: -9.83%
24,CC(=O)Nc1ccc(S(=O)(=O)NCC2CCC(C(=O)NCCc3ccc(C)cc3)CC2)cc1 (stereo not drawn),inactive: 2.46%

row,Structure (SMILES),"activity change, negative = cytotoxicity"
1,COc1ccc(CCNC(=O)Cn2c(=O)nc(-c3ccccc3)c3cc(Cl)ccc32)cc1OC,inactive: -15.2%
2,CC(=O)c1cccc(NC(=O)c2ccc3c(c2)N(Cc2ccc(C)cc2)CCS3)c1,inactive: 4.12%
3,Clc1ccc(-c2cn3cc(Cc4ccccc4)sc3n2)cc1,inactive: 23.3%
4,CCc1ccc(NC(=O)CNC(=O)Cn2c(C)cc3ccccc3c2=O)cc1,inactive: 9.17%
5,CCOc1ccc(CCNC(=O)c2ccc(CSCc3ccccc3C)o2)cc1OCC,inactive: -4.01%
6,COC(=O)c1c(NC(=O)c2ccc(C(C)(C)C)cc2)sc2c1CCC(C)C2 (stereo not drawn),inactive: -10.1%
7,COc1cc(C2CC(=O)c3c([nH]c(C(=O)OC4CCCC4)c3C)C2)cc(OC)c1OC (stereo not drawn),inactive: -15.5%
8,CCN(C(=O)Cn1nc(Cc2ccncc2)c2ccccc2c1=O)c1ccc(OC)cc1,inactive: 2.14%
9,CCOC(=O)c1c(NC(=O)COc2ccccc2)sc(C(C)=O)c1C,inactive: 20%
10,CC1(C)CC(=O)c2cc(-c3nc(-c4ccc(F)cc4)cs3)c(=O)[nH]c2C1,inactive: 3.1%
11,CCN(C(=O)C(NS(=O)(=O)c1ccc(Br)s1)c1ccccc1)c1ccc(C)c(C)c1 (stereo not drawn),inactive: -4.34%
12,CC1=C(c2ccc(Cl)cc2)S(=O)(=O)N=C1N1CCN(c2cc(C)ccc2C)CC1,inactive: -2.28%
13,Cc1cc2[nH]c(=O)c(=O)[nH]c2cc1S(=O)(=O)N1CCN(c2ccccc2F)CC1,inactive: 5.54%
14,Cc1cc(C)cc(-n2c(SCC(=O)Nc3ccc4c(c3)OCO4)nc3c([nH]c4ccccc43)c2=O)c1,inactive: 4.49%
15,COc1ccc(CNC(=O)C(=O)NCC(c2cccnc2)N2CCN(c3ccccc3)CC2)cc1 (stereo not drawn),inactive: -16%
16,CCOC(=O)c1ccc(NC(=O)Cn2nc(C)c3nn(-c4ccc(Cl)cc4)c(C)c3c2=O)cc1,inactive: -7.82%
17,CCc1nc2nc(C)cc(Nc3cc(C)ccc3C)n2n1,inactive: -2.79%
18,Cc1cccc(N2CCN(C(=O)c3cnn(-c4ccccc4)c3C3CCN(C(=O)OC(C)(C)C)CC3)CC2)c1C,inactive: -4.34%
19,CCOC(=O)c1c(NC(=O)C(C)Sc2cn(CCNC(=O)c3ccc(OCC)cc3)c3ccccc23)sc2c1CCC2 (stereo not drawn),inactive: 24.9%
20,CCOC(=O)c1c(S(=O)(=O)N2CCC(C(=O)NCc3ccccc3Cl)CC2)c(C)n(C)c1C,inactive: 9.21%
21,COCCn1ccc2c(OCC(=O)Nc3cccc(C(F)(F)F)c3)cccc2c1=O,inactive: -4.64%

# — PubChem BioAssay AID1508642 (National Center for Advancing Translational Sciences (NCATS), 2021)
